Laboratory results published in paper PMC10668032.
The list shows a part of the results. At the low end of the ranking, values are background and their order means little.

These sequences were tested against SIX1 homeodomain (reference allele) (UniProt Q15475) (assay: universal protein binding microarray). Conditions: Universal all-10-mer PBM (8x60K, AMADID 030236), 300 nM GST-tagged protein, Alexa Fluor 488 anti-GST; buffer, salt, pH and temperature not stated; high values mean tight binding; most listed sequences are background and not binding sites; double strand, one strand shown.

Sequence	binding signal [E-score]
GAAGTTGC	-0.204
ATAGTGCG	0.0774
GGACAACA	-0.0797
AGTCTTTG	-0.214
GGGACGTA	0.0511
GAACTTGA	0.0312
CAACCTTC	-0.258
CAAAGAAA	-0.327
AGATTTGC	-0.193
GCGTGTCA	0.117
ACTTTTGA	-0.147
ACGCGTAA	0.0077
AAACTGTA	-0.0741
CACGTTCC	-0.0842
GCCGCAAA	-0.0861
TGCAAGAA	-0.131
TCACTGGA	0.0123
AGGGCTGA	-0.0752
ACAAACTA	-0.0665
GACAAGAC	-0.135
CCCGAGCA	-0.036
AGCCCGAT	0.263
ACTAATAC	0.225
AAGGAGTC	-0.191
GACCGGTC	-0.11

Sequence	binding signal [E-score]
AAGGCCCA	-0.34
GAACTTAC	-0.165
GACTAGTC	-0.154
TCAATTGA	-0.0339
CATACACG	0.157
AACTAGCG	-0.145
CAGCAACC	-0.235
AGTAATGA	0.0889
ACATAATA	0.248
GTTATTGA	0.0127
GCCACCCA	-0.225
CCAAAGGA	-0.154
CCTGTATA	0.219
GCGGTGAA	-0.05
AGAGCACC	-0.0661
AAGTACGG	-0.221
GCGTGAGA	0.132
GCAGGAAA	-0.153
CAACACTA	-0.0617
ACTAGAAT	-0.0461
CTCGCTCA	0.0131
CGGCCCGC	0.0147
AAGAGGTA	0.187
AAATTAAA	-0.229
ACCATCCG	0.23

Sequence	binding signal [E-score]
ATGTGACC	-0.146
GCTTCCCA	-0.0472
AGGATCCA	0.346
ATCAGGAC	0.149
CTGAATCC	-0.0016
ATGAGATC	0.34
ACATATAC	0.244
GAGCTGTA	-0.147
ATTTACTG	-0.209
CCCGCTTA	-0.092
CAATTCGA	-0.134
ACAGGCGA	-0.0237
CCCCCACG	-0.0276
CCTTAAAG	-0.043
ACTTCAGG	-0.114
ACGTCACG	-0.0848
CATCTTGC	0.0243
GTTGCTTA	-0.134
AACTCAAT	-0.0503
GCTGAATA	-0.156
AACCAATG	-0.119
AAGTTGTC	-0.0837
ACCAGAGA	0.0419
GAGAATGA	0.0535
CAAGTAAA	-0.0914

Sequence	binding signal [E-score]
AACGTCTG	-0.125
AACAGACA	-0.0522
ATGTTGAG	0.0841
GGCATTAC	-0.194
ATGGTTGC	-0.147
TACTTGCA	-0.112
AAATGGCA	-0.108
AGAATGGC	-0.31
ATTGTTCG	-0.0335
GCAGACCC	-0.0239
AACAATAC	0.255
AGTGAAGC	-0.186
CTATTCAG	-0.00496
CGTTGCGA	-0.152
GTCACGTA	-0.123
CGTGAGAG	-0.0489
ATCCTATC	0.375
AGCTCCGA	-0.121
GCAGTGTA	0.076
AAGTCGAT	-0.0496
AAACTTAT	-0.192
CCCTTGGC	-0.139
ACAACTTC	-0.18
CCAACCCA	-0.0438
CACCTGAC	0.079

Sequence	binding signal [E-score]
TATGCGCA	-0.03
ATCGACGA	-0.0174
ACGAGTCG	0.0298
ACGACCTG	-0.0928
GCCGACAC	0.11
AAGACCAG	-0.192
AACCAAGT	-0.142
ACGCAAGG	-0.0872
ACAGGCTC	0.0633
GGTTTCAC	0.121
ATCTGCCA	0.187
AGGGTAAT	0.205
AGCGGCCA	-0.307
ACAGTACT	-0.049
CAGATCTC	0.241
CAAGGCAA	-0.162
GAACGCCA	-0.0986
GCTTCGGA	-0.0452
AGAATAAA	-0.0869
TTGAAAAA	-0.124
ACACAGGC	-0.092
GAACGTCA	-0.248
CTACCGAC	-0.196
GAAATAAC	-0.111
GATTGGAC	-0.184

Sequence	binding signal [E-score]
CGTTGCTC	-0.101
GACACGTA	0.211
CGTAAAGC	-0.198
ATAGGAGG	0.115
CTTGTTCC	-0.0131
AAGGAAGA	-0.114
ATCGATTC	0.2
CTAGATCC	0.191
ATTGGAAA	-0.194
CCAACACA	0.033
GGGATTCA	0.098
GTGGATGA	0.128
AGTGTGAC	0.0378
CCGTGGCA	-0.0688
AGTGTGAA	-0.0571
GCTGTAAC	-0.18
ACTAGCAG	-0.196
AGAAGAAT	-0.077
ATGTTGAA	-0.0507
TGCATCCA	0.00122
AATCGCTG	-0.333
GGGTTGCA	-0.0442
CTTATGTA	-0.115
AGTGACCC	-0.0107
CAGTGAAC	0.0285

Sequence	binding signal [E-score]
CTTTCAGC	-0.129
GCTCGCGA	-0.000445
AAATTTAA	-0.285
AAGGGTTA	0.0139
TAAGGATA	0.276
AGCGTGTA	0.14
AGCGGCTG	-0.126
CCTCTGCC	-0.113
GATTCAAA	-0.169
AGCACGGC	-0.127
GTTTTGTA	-0.0274
CTGCACGA	-0.022
TACTTTCA	-0.00346
AGGTTGAG	-0.121
AGCGGGAT	0.289
ATACCGAT	0.353
GCGAGCGC	-0.157
GCTTAGCC	-0.0974
AAATGAGC	-0.018
GGCCTGGA	-0.197
GGCCGCCA	-0.317
AGTCTATG	-0.107
AACTAGCA	-0.0897
TATAAAAA	-0.104
GGGGTTAA	0.049

Sequence	binding signal [E-score]
GCTAGTCC	-0.106
AAAACATT	-0.375
TCGTGGAA	0.124
CGGGCTAC	-0.0855
GAAAGCTC	-0.171
CTGTCGGC	-0.0713
AGAGGACT	-0.0995
TCAAATCA	-0.139
GATGTTTA	-0.0585
CAATTAAG	-0.207
TAGCATGA	-0.00967
TGCCGCCA	-0.177
ATAGCGCA	-0.0371
ATCTGTAA	-0.0377
GACAGAAA	-0.14
TGGTGTAA	0.297
CATATACA	0.263
ACGTATAC	0.285
AGGCGTTG	-0.166
ATGGACCA	-0.0174
ACCGGATG	0.121
GCGCGCAC	-0.215
CTGTGAGA	0.0759
ACATCGGA	-0.0196
AGGTAACT	0.0826

Sequence	binding signal [E-score]
ACACAACT	-0.0839
ATGACTGC	-0.209
CGTCAGTA	0.0666
CCAAATCC	-0.0396
AGTCAGTA	-0.114
GCGTACAA	-0.149
GGCCTTAA	-0.287
CTCTCATC	-0.0725
CCTGACAA	-0.202
AACACAAT	0.0801
CAGTCAAG	-0.208
CGACCCCA	0.11
CCTCCACG	-0.19
CACGAGCC	0.0147
ATGACGAC	-0.122
CTATAGAG	0.0161
CCGGACTA	-0.171
CATGTTCC	-0.325
GCGACCGA	0.151
